Reference: publication PMC6919601, “Identification of Plasmodium dipeptidyl aminopeptidase allosteric inhibitors by high throughput screening” (PLoS ONE, 2019)
The whole screen tested about 110,000 compounds, of which about 230 (0.21%) showed an effect of 50% or more. This is one part of the list.

Target: DPAP1 (Plasmodium falciparum, UniProt Q8IIJ9)
Assay: primary screen, percent inhibition; read by cleavage of a fluorogenic dipeptide substrate; higher = more effect of the substance
Parameters: species or system P. falciparum D10 trophozoite lysates; single well
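Note: 30 min substrate incubation versus DMSO and 10 µM JCP410 controls.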

Chain of DPAP1 (Q8IIJ9 whole entry, looked up): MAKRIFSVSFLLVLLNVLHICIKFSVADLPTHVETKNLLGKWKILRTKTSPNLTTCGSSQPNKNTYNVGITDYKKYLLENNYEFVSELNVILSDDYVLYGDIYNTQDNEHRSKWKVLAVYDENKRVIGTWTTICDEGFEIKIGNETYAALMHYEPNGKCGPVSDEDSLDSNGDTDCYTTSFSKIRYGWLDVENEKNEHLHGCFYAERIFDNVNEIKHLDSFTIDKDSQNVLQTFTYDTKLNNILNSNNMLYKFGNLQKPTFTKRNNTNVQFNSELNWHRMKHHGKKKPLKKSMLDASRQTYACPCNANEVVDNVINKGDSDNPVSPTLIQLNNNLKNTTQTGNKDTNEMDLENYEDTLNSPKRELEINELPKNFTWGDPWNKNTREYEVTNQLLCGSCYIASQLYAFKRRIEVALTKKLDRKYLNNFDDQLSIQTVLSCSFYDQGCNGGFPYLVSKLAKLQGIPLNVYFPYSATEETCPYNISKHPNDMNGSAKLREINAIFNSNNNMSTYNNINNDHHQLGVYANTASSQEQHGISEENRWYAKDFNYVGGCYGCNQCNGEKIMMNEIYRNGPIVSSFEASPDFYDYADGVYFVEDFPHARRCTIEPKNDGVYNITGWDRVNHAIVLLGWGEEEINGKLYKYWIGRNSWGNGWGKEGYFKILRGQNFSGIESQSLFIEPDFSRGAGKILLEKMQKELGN

SMILES	% Inhibition @ 10 uM [%]
CCNC(=O)c1ccc(-c2nc(CS(=O)(=O)c3ccccc3)c(C)o2)cc1	-0.591
CCOC(=O)N1CCC(/N=c2\c(O)c(O)\c2=N/CCCN(CC)CC)CC1	5.09
Cc1oc(-c2ccccc2Cl)nc1CSCC(=O)NCc1cccnc1	-2.85
O=C(NC1CCCc2ccccc21)C1CCN(c2cnccn2)CC1 (stereo not shown)	2.41
Cc1ccc(-n2nc(C)c3c(C(=O)NC(C)C)cc(C)nc32)cc1	1.12
Cc1occc1C(=O)Nc1sc2c(c1C(N)=O)CCCCC2	3.76
Cc1ccccc1OCC(=O)Nc1cccc(N2C(=O)c3cccc([N+](=O)[O-])c3C2=O)c1	-6.83
Cc1cccc(NC(=O)c2sc3ncn(CC(=O)N4CCCCC4C)c(=O)c3c2C)n1 (stereo not shown)	-3.93
COc1ccc(-c2noc(N3CC(C)CC(C)C3)n2)cc1OC (stereo not shown)	5.7
O=C(CNC(=S)N(Cc1ccccc1)Cc1cccs1)NCc1ccc(F)cc1	-7.73
Cc1ccc(C(=O)Nc2sc(C)c(C)c2C(=O)O)cc1	3.06
Clc1ccc(N2CCN(C3CCSC3)CC2)cc1 (stereo not shown)	1.88
COc1ccc2c(CNCCc3ccccc3Cl)c(C(=O)O)n(C)c2c1	0.984
CCCCNC(=O)c1cn(C)c(=O)c2cc(OC)c(OC)cc12	-5.67
O=C(CN(c1ccc(F)cc1)S(=O)(=O)c1ccc2c(c1)OCCO2)NCC1CCCO1 (stereo not shown)	-2.54
COc1ccc(C(=O)c2cc3ccccc3cc2O)cc1	-5.1
CCOc1ccc(NC(=O)CN(c2ccccc2CC)S(C)(=O)=O)cc1	2.02
Cc1cc(C)c2cccc(NC(=O)c3ccc(Cl)cc3)c2n1	-1.22
CCn1c(CO)nc2ccccc21	-2.28
COC(=O)c1cc(N2CCNCC2)nc2ccccc12	1.84
CC(C)CC(=O)n1nc(-c2ccco2)nc1NCc1ccccc1Cl	-2.92
COc1ccc2c(CNCC(C)c3ccccc3)c(C(=O)O)n(Cc3ccc(C)cc3)c2c1 (stereo not shown)	7.63
COc1cc(OC)c(C2C=C(c3ccc(Cl)cc3)Nc3nnnn32)cc1OC (stereo not shown)	3.32
Cn1ccnc1C(=O)c1ccccc1C(=O)c1ccccc1	-1.72
CCC(C)NC(=O)c1cc(S(=O)(=O)N2CCCCC2)c[nH]1 (stereo not shown)	-8.86

SMILES	% Inhibition @ 10 uM [%]
CNS(=O)(=O)c1cn(CC(=O)N2CCOCC2)cc1S(=O)(=O)NC	-4.18
Cc1cccc(N(CC(=O)NCC2CCCO2)S(=O)(=O)c2ccccc2)c1C (stereo not shown)	5.92
CN1C(=O)c2ccccc2C(C(=O)O)C1c1c[nH]c2ccccc12 (stereo not shown)	-1.51
COc1cc(C2C(C#N)=C(N)Oc3[nH]nc(C)c32)cc(Br)c1OCc1ccccc1 (stereo not shown)	-0.178
COc1ccc(C2NC(c3ccc(OC)c(OC)c3OC)C(C)C(=O)C2C)c(OC)c1OC (stereo not shown)	-0.326
CC(=O)Nc1ccc2c(c1)C1C=CCC1C(C1CC=CCC1)N2 (stereo not shown)	9.53
Cc1ccccc1CNC(=O)C1COc2ccccc2O1 (stereo not shown)	-2.15
CN(C)CCN(C)Cc1ccccc1Sc1ccc2c(c1)OCO2	-2.65
CCc1ccc(-c2nc(CSCC(=O)N3CCN(CC)CC3)c(C)o2)cc1	-4.71
Cc1onc(-c2ccccc2Cl)c1C(=O)NCc1ccccn1	-3.09
CC(=O)Nc1ccc(NC(=O)c2ccc(C)c(Br)c2)cc1	-1.61
CCC(O)CC(c1ccccc1)c1c(O)oc2ccccc2c1=O (stereo not shown)	-4.35
COc1ccc(N2CCN(C(=O)Nc3ccccc3)CC2)cc1	2.44
O=C(Nc1ccc(S(=O)(=O)N2CCCCC2)cc1)C1CCCO1 (stereo not shown)	2.5
COc1ccc(S(=O)(=O)N(CC(=O)N(C)Cc2ccccc2)c2ccccc2)cc1	-7.63
Cc1ccc(C)c(S(=O)(=O)NC(C)C(=O)NCc2ccco2)c1 (stereo not shown)	-3.43
Cc1ccc(S(=O)(=O)C2(C(=O)NC3CCCCCC3)CC2)cc1	-1.92
CC1(C)CC(CC#N)(c2ccccc2)CCO1 (stereo not shown)	-4.35
O=C(c1ccccc1Cl)N1CCN(c2ncccn2)CC1	2.93
CC1CC2=C(CC1(CO)CO)C(C)(C)CCC2 (stereo not shown)	-5.5
CC1CCCN(S(=O)(=O)c2ccc(NC(=O)c3ccc(Cl)cc3)cc2)C1 (stereo not shown)	1.93
CN1C(=O)N(C)C2(O)c3ccccc3/C(=N\N=C(N)N)C12O (stereo not shown)	3.34
COc1ccc(CN2CCN(Cc3ccc(Br)cc3)CC2)cc1	-3.13
Cc1ccc(N2CC(C(=O)Nc3cccc(Br)c3)CC2=O)cc1 (stereo not shown)	-3.04
